The labels stand for the following.
B1: LINE1-full (parent)
chain: UACGUAGGUGGUUUUCCCCUGAUAGUGCUAAGGGGGCCUGGAAGUUUGGACUGGGCAGAGCUCAACACAGCGUGGCAAAGUGGCUGUGGCUAGACUGCCUCUCUGGAUUCCUCGUCACUCAGCAGGGCAUCUCUGAGAGAAAUGCC

The source gives no read counts; variants with many changes may rest on few reads.

This series covers variants of B1. Description: self-cleavage, relative activity (ratio to wild type); higher = more cleavage; in vitro, sequencing; the parent is a self-cleaving ribozyme.
UACGUAGGUGGUUUUCCCCUGAUAGUGCCAAGGGGGCCUGGAAGUUAGGACUGGGCAGAGCUCAACACAGCGUGGCGAAGUGGCUGUGGCUAGACUGCCUCUCUGGAUUCCUCGUCACUCAGCAGGGCGUCUCUGAGAGAGAUGCC [U29C U47A A77G A129G A141G]: the self-cleavage was determined as 1.9.
To UACGUAGGUGGUUUUCCCCUGAUAGUGCCAAGGGGGCCUGGAAGUUUGGACUGGGCAGAGCUCAACACAGCGUGGCAAAGUGGCUGUGGCUAGACUGCCUCUCUGGAUUCCUCGUCACUCAGCAGGACAUCUCUGCGAGAAAUGCC [U29C G127A A136C] belongs 1.65; to UACGUAGGUGGUUUUCCCCUGAUAGUGCCAAGGGGGCCCGGAAGUUUGGACUGGGCAGAGCCCAACACAGCGUGGCAAAGUGGCUGUGGCUAGACUGCCUCUCUGGAUUCCUCGUCACUCAGCAGGGCAUCUCUGAGAGAAAUGCC [U29C U39C U62C], 0.
To UACGUAGGUGGUUUUCCCCUGAUAGUGCCAAGGGGGCCUGGAAGUUUGGACUGGGCAGAGCUCAACACAGCGUGGCAAAGUGGCUGUGGCUAGACUGCCUCUCUGGAUUCCUCGUCACUCAGCAGGGCAUCUCUGGGGGAAAUGCC [U29C A136G A138G] belongs 0.97; to UACGUAGGUGGUUUUCCCCUGAUAGUGCCAAGGGGGCCUGGAAGCUUGGACUGGGCAGAGCUCAACACAGCGUGGCAAAGUGGCUGUGGCUAGGCUGCCUCUCUGGAUUCCUCGUCACUCAGCAGGGCAUCUCUGAGAGAAACGCC [U29C U45C A94G U143C], 1.27.
To UACGUAGGUGGUUUUCCCCUGAUAGUGCCAAGGGGGCCUGGAAGUUUGGACUGGGCAGAGCUCAACACAGCGUGGCAAAGUGACUGUGGCUAGACUGCCUCUCCGGAUUCCUCGUCACUCAGCAGGGCAUCUCUGAGAGAAAUGCC [U29C G83A U104C] belongs 1.82.
For the variant UACGUAGGUGGUUUUCCCCUGAUAGUGCCAAGGGGGCCUGGAAGUUUGGACUGGGCAGAGCUCAACACAGCGUGGCAAAGUGGCUGUGGCUAGACUGCCUCUCUGGAUUCCCCGUCACUCAGCUGGGCAUCUCUGAGAGAAAUGCC [U29C U112C A124U], the self-cleavage was determined as 1.74.
Take UACGUAGGUGGUUUUCCCCUGAUAGUGCCAAGGGGGCCUGGAAGUUAGGACUGGGCAGAGCUCAACACAGCGUGGCGAAGUGGCUGUGGCUAGACUGCCUCCCUGGAUUCCUCGUCACUCAGCAGGGCAUCUCUGAGAGAAAUGCC [U29C U47A A77G U102C]: the self-cleavage stood at 1.31.
To UACGUAGGUGGUUUUCCCCUGAUAGUGCCAAGGGGGCCUGGAAGUUUGGACCGGGCAGAGCUCAACACAGCGUGGCAAAGUGGCUGUGGCUAGACCGCCUCUCUGGAUUCCUCGUCACUCAGCAGGGCAUCUCUGAGAGAAAUGCC [U29C U52C U96C] belongs 0.
To UACGUAGGUGGUUUUCCCCUGAUAGUGCCAAGGGGGCCUGGAAGUUUGGACUGGGCAGAGCUCAACACAGCGUGGCAAAGUGGCUGUGGCUAGACUGCCUCUCUGGAUUCCUCGUCACUCAGCAGGGCAUCCCUGAGAGGAAUGCC [U29C U132C A140G] belongs 2.66.
The value for UACGUAGGUGGUUUUCCCCUGAUAGUGCCAAGGGGGCCUGGAAGUUUGGACUGGGCAGAGCUCAACACAGAGUGGCAAAGUGGCUGUGGCUAGACUGCCUCUCUGGAUUCCUCGUCACUCAGCAGGGCAUCUCUGAGGGAAAUGCC [U29C C71A A138G] was 0.43; that for UACGUAGGUGGUUUUCCCCUGAUAGUGCCAAGGGGGCCUGGAAGUUUGGACUGGGCAGAGCUCAACACAGCGUGGCAAAGUGGCUGUGGCUAGACUGCCUCUCUGAAUUCCUCGUCGCUCAGCAGGGCAUCUCUGAGAGAAAUGCC [U29C G106A A117G] was 1.63; that for UACGUAGGUGGUUUUCCCCUGAUAGUGCCAAGGGGGCCUGGAAGUUUGGACUGGACAGAGCUCAACACAGCGUGGCAAGGCGGCCGUGGCUAGACUGCCUCUCUGGAUUCCUCGUCACUCAGCAGGGCAUCUCUGAGAGAAAUGCC [U29C G55A A79G U81C U85C] was 0.14.
Turning to UACGUAGGUGGUUUUCCCCUGAUAGUGCCAAGGGGGCCUGGAAGUUUGGACUGGGCAGAGCUCAACACAGCAUGGCAAAGUGGCUGUGGCUAGACUGCCUCUCUGGAUUCCUCGUCACUCAGCAGGGCAUUUCUGAGAGAAAUGCC [U29C G72A C131U], the self-cleavage came out at 1.11.
To UACGUAGGUGGUUUUCCCCUGAUAGUGCCAAGGGGGCCUGGAAGCUUGGACUGGGCAGAGCUCAACACAGCGUGGCAAGGUGGCUGUGGCUAGACUGCCUCUCUGGAUUCCUCGUCACUCAGCAGGGCCUCUCUGAGAGAAAUGCC [U29C U45C A79G A129C] belongs 0; to UACGUAGGUGGUUUUCCCCUGAUAGUGCCAAGGGGGCCUGGAAGUUAGGACUGGGCAGAGCUCAACACAGCGUGGCAAAGUGGCUGUGGCUGGACUGCCUCUCUGGAUUCCCCGUCACUCAGCAGGGCAUCUCUGAGAGAAAUGCC [U29C U47A A92G U112C], 0; to UACGUAGGUGGUUUUCCCCUGAUAGUGCCAAGGGGGCCUGGAAGUUUGGACUGGGCAGAGCUCAACACAGCGUGGCAAAGUGGCUGUGGCAAGACUGCCUCUCUGGAUUCCUCGUCACUCUGCAGGGCAUCUCUGAGAGAAAUGCC [U29C U91A A121U], 0.95.
As for UACGUAGGUGGUUUUCCCCUGAUAGUGCCAAGGGGGCCUGGAAGUUUGGACUGGGCAGAGCUCAACACAGCGUGGCAAAGUGGCUGUGGCUAGACUGCCUCUCUGGAUUCCUCGACACUCAGCAGGGCAUCUCUGAGAGAAGUGCC [U29C U115A A142G], the self-cleavage turned out to be 0.57.
To UACGUAGGUGGUUUUCCCCUGAUAGUGCCAAGGGGGCCUGGAAGUUUGGACUGGGCAGAGCUCAACACAGCGUGGCAAAGUGGCUGUGGCUAGACUGCCUCUCUGGAUUCCUCGUCACCCAGCAGGGCAUCCCUGAGAGAAAUGCC [U29C U119C U132C] belongs 1.7.
The value for UACGUAGGUGGUUUUCCCCUGAUAGUGCCAAGGGGGCCUGGAAGCUUGGACUGGGCAGAGCUCAACACAGCGUGGCAAAGUGGCUGUGGCUAGACUGCCUCUCUGGAUUCCUCGUCACUCAGCAGGGCAUCUCUGAGAGCAAUGCC [U29C U45C A140C] was 1.23; that for UACGUAGGUGGUUUUCCCCUGAUAGUGCCAAGGGGGCCUGGAAGUUUGGACUGGGCAGAGCUCAACACAGCGUGGCAAAGUGGCUGUGGCUAGACUGCCUCUCUGGAUUCCUCGUCACCCAGCAGGGCACCUCUGAGAGAAAUGCC [U29C U119C U130C] was 0.88.
To UACGUAGGUGGUUUUCCCCUGAUAGUGCCAAGGGGGCCUGGAAGUGUGGACUGGGCAGAGCUCAACACAGCGUGGCAAAGUGGCUGUGGCCAGACUGCCUCUCUGGAUUCCUCGUCACUCAGCAGGGCUUCUCUGAGAGAAAUGCC [U29C U46G U91C A129U] belongs 0.88; to UACGUAGGUGGUUUUCCCCUGAUAGUGCCAAGGGGGCCUGGAAGUUUGGACUGGGCAGAGCUCAACACAGCGUGGCAAAGUGGCUGUGGCUAGACUGCCUCUCUGGAUUCCUCGUCACUCGGUAGGGCAUCUCUGAGAGAUAUGCC [U29C A121G C123U A141U], 1.76; to UACGUAGGUGGUUUUCCCCUGAUAGUGCCAAGGGGGCCUGGAAGUUUGGACUGGGCAGAGCUCAACACAGCGUGGCAAAGUGGCUGUGGCUAGACUGCCCCUCUGGAUUCCUCGUCACUCAGCAGGGCAUCUCUGAGAGGAAUGCC [U29C U100C A140G], 2.7.
With UACGUAGGUGGUUUUCCCCUGAUAGUGCCAAGGGGGCCCGGAAGUUUGGACUGGGCAGAGCUCAACACAGCGCGGCAAAGUGGCUGUGGCUAGACUGCCUCUCUGGAUUCCUCGUCACUCAGCUGGGCAUCUCUGAGAGAAAAGCC [U29C U39C U73C A124U U143A], the self-cleavage came to 0.
To UACGUAGGUGGUUUUCCCCUGAUAGUGCCAAGGGGGCCUGGAAGUAUGGACUGGGCGGAGCUCAACACAGCGUGGCAAAGUGGCUGUGGCUAGACUGCCUCUCUGGAUACCUCGUCACUCAGCAGGGCAUCUCUGAGAGAAAUGCC [U29C U46A A57G U109A] belongs 0; to UACGUAGGUGGUUUUCCCCUGAUAGUGCCAAGGGGGCCUGGAAGUUUGGACUGGGCAGAGCUCAACACAGCGUGGCAAAGUGGCUGUGGCUAGACUGCCUCUCUGGAUUCCUCGUCACUCAGCAGGGCUUCUCUGAGAGAAGUGCC [U29C A129U A142G], 0.92; to UACGUAGGUGGUUUUCCCCUGAUAGUGCCAAGGGGGCAUGGAAGUUUGGACUGGGCAGAGCUCAGCACAGCGUGGCAAAGUGGCUGUGGCUAGACUGCCUCUCUGGAUUCCUCGUCACUCAGCAGGGCAUCUCUGAGAGAAAUGCC [U29C C38A A65G], 0.06.
The value for UACGUAGGUGGUUUUCCCCUGAUAGUGCCAAGGGGGCCUGGAAGUUUGGACUGAGCAGGGCUCAACACAGCGUGGCAAAGUGGCUGUGGCUAGACUGCCUCUCUGGAUUCCUCGUCACUCAGCAGGGCAUCUCUGAGAGAAAUGCC [U29C G54A A59G] was 0.32; that for UACGUAGGUGGUUUUCCCCUGAUAGUGCCAAGGGGGCCUGGAAGUUUGGACUGGGCAGAGCUCAACACAGCGUGGCAAAGUGGCUGUGGCUAGUCUGCCUCUCUGGAUUCCUCGUCACUCAGCAGGGCAUCACUGAGAGAAAUGCC [U29C A94U U132A] was 0.41.
The value for UACGUAGGUGGUUUUCCCCUGAUAGUGCCAAGGGGGCCUGGAAGUUUGGACUGGGCAGAGCUCAACACAGCGUGGCAAAGUGGCAGUGGCUAGACUGCCUCUCUGGAUUCCUCGUCACUCAGCAGGGCAUCUCCGAGAGAAAUGCC [U29C U85A U134C] was 0.18; that for UACGUAGGUGGUUUUCCCCUGAUAGUGCCAAGGGGGCCUGGAAGUCCGGACUGGGCAGAGCUCAACACAGCGUGGCAAAGUGGCUGUGGCUAGACUGCCUCUCUGGAUUCCUCGUCACUCAGCAGGGCAUCUCUGAGAGAAAUGCC [U29C U46C U47C] was 1.11.
Regarding UACGUAGGUGGUUUUCCCCUGAUAGUGCCAAGGGGCCCUGGAAGUUUGGACUGGGCAGAGCUCAACACAGCGUGGCAAAGUGGCUGCGGCUAGACUGCCUCUCUGGAUUCCUCGUCACUCAGCAGGGCAUCUCUGAGAGAAAUGCC [U29C G36C U87C], the self-cleavage turned out to be 1.04.
The value for UACGUAGGUGGUUUUCCCCUGAUAGUGCCAAGGGGUCCUGGGAGUUUGGACUGGGCAGAGCUCAACACAGCGUGGCUAAGUGGCUGUGGCUAGACUGCCUCUCUGGAUUCCUCGUCACUCAGCAGGGCAUCUCUGAGAGAAAUGCC [U29C G36U A42G A77U] was 1.
The value for UACGUAGGUGGUUUUCCCCUGAUAGUGCCAAGGGGGCCUGGAAGUUAGGACUGGGCAGAGCUCAACACAGCGUGGCAAAGUGGCUGUGGCUAGACUGCCUCUCUGGAUUCCUCGUCACUCAGCUGGGCAUCUCUGAGAGAAAUGCC [U29C U47A A124U] was 1.89; that for UACGUAGGUGGUUUUCCCCUGAUAGUGCCAAGGGGGCCUGGAAGUUUGGACUGGGCAGAGCUCAACAAAGCGUGGCAAAGUGGCUGUGGCUAGACUGCCUCUCUGGAUUCCUCGUCGCUCAGCAGGGCAUCUCUGAGUGAAAUGCC [U29C C68A A117G A138U] was 0.1.
As to UACGUAGGUGGUUUUCCCCUGAUAGUGCGGAGGGGGCCUGGAAGUUUGGACUGGGCAGAGCUCAACACAGCGUGGCGAAGUGGCUGUGGCUAGACGGCCUCUCUGGAUUCCUCGUCACUCAGCAGGGCAUCUCUGAGGGAAAUGCC [U29G A30G A77G U96G A138G], the self-cleavage came to 0.
The value for UACGUAGGUGGUUUUCCCCUGAUAGUGCCAAGGGGGCCCGGAAGUAUGGACUGGGCAGAGCUCAACACAGCGUGGCAAAGUGGCUGUGGCUAGACUGCCUCUCUGGAUUCCUCGUCACUCAGCAGGGCAUCUCUGAGAGAAAUGCU [U29C U39C U46A C146U] was 1.03; that for UACGUAGGUGGUUUUCCCCUGAUAGUGCGAAGGGGGCCUGGCAGUUUGGACUGGGCAGAGCUCAACACAGCGUGGCAAGGUGGUUGUGGCUAGACUGCCUCUCUGGAUUCCUCGUCACCCAGCAGGGCAUCUCUGAGAGAAAUGCC [U29G A42C A79G C84U U119C] was 0.33.

Source of the values: the RNAGym collection of RNA variant scans (doi:10.7554/elife.90254).
